{"source": "PubChem BioAssay AID686978", "about": "(National Center for Advancing Translational Sciences (NCATS), 2013)", "note": "In all, about 420,000 compounds went through this assay and about 64,000 (15%) were called active. Inconclusive means that the source gave no clear call. Such entries were picked first, then a sample of the others. Calls come from the whole dose curve; as a rule, active = well fitted inhibition curve with a large enough effect; inconclusive = small, poorly fitted or top-dose-only effect; inactive = flat fitted curve, though single readings scatter. No potency is given beside an inconclusive call; the fits are too rough. % is set by controls: 0 for no effect and ±100 for the full control effect; potency is the fitted concentration of half-maximal effect; tags give direction and shape of the fitted curve."}
{"assay": "qHTS for Inhibitors of human tyrosyl-DNA phosphodiesterase 1 (TDP1): qHTS in cells in absence of CPT; note: nearly all actives have a fitted effect of over 55% in size", "conditions": "DT40 Tdp1-/- hTDP1 cells, no CPT, ATP luminescence, 48 h; activity change, negative = growth inhibition: at 46.2 µM (top of the series) unless noted", "method_in_brief": "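DT40 Tdp1-/-;hTDP1 cells, no CPT (DMSO vehicle only), 400 cells/well; compounds pin-transferred; ≥48 hr, 37 °C; CellTiter-Glo 30 min RT dark, luminescence read.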"}
{"compound": "CCOc1ccc(S(=O)(=O)n2nc(C)c(S(=O)(=O)N3CCOCC3)c2C)cc1", "Potency": "inactive"}
{"compound": "Cc1cc(Cl)c(S(=O)(=O)N2CCSCC2)cc1OCC(=O)NC1CCCCC1", "Potency": "active: 18.4 µM"}
{"compound": "Cc1ccc(Cl)cc1NC(=O)CCCN1C(=O)CCn2nc(-c3cn(C)c4ccccc34)cc21", "Potency": "inconclusive [inhibitor, single point]"}
{"compound": "COc1ccc(C(=O)CN2CCN(S(=O)(=O)c3cccc([N+](=O)[O-])c3)CC2)cc1", "Potency": "inactive"}
{"compound": "Cc1ccc(C)c(N2CCN(C(=O)c3cc4sccc4n3C)CC2)c1", "Potency": "inconclusive [inhibitor, single point]"}
{"compound": "O=C(NNC(=S)Nc1ccccc1C(F)(F)F)C1CC1", "Potency": "inactive"}
{"compound": "O=C(Nc1ccccc1)OCN1C(=O)c2ccccc2C1=O", "Potency": "inactive"}
{"compound": "CC(C)(C)c1ccc(-c2nnc3sc(-c4ccccn4)nn23)cc1", "Potency": "inconclusive [inhibitor, partial curve]"}
{"compound": "CCn1c(SCC(=O)Nc2cc(C)on2)nnc1-c1cccs1", "Potency": "inactive"}
{"compound": "COc1ccc(N2CCN(C(=O)c3cc4cc5ccc(Cl)cc5nc4o3)CC2)cc1", "Potency": "inactive"}
{"compound": "CCCC(c1nnnn1C(C)(C)C)N1CCN(c2ccccc2)CC1", "note": "(stereo not drawn)", "Potency": "inconclusive [inhibitor, single point]"}
{"compound": "O=C(CSc1nnc(COc2ccccc2Cl)o1)NC(=O)NCc1ccco1", "Potency": "inconclusive [inhibitor, single point]"}
{"compound": "CCOC(=O)c1c(-c2ccc(-c3ccccc3)cc2)csc1NC(=O)c1cccc(N2C(=O)CCC2=O)c1", "Potency": "active: 6.51 µM"}
{"compound": "COc1ccc(C)cc1S(=O)(=O)NCC(c1ccc(N(C)C)cc1)N1CCc2ccccc21", "note": "(stereo not drawn)", "Potency": "inconclusive [inhibitor, single point]"}
{"compound": "Cc1onc(-c2c(F)cccc2Cl)c1C(=O)NCc1ccco1", "Potency": "inconclusive [inhibitor, single point]"}
{"compound": "CC(C)C(=O)Nc1ccc(NC(=O)c2cccc3c(Br)cccc23)cc1", "Potency": "inconclusive [inhibitor, single point]"}
{"compound": "Cc1cc(Br)ccc1OCC(=O)NNC(=O)c1cnccn1", "Potency": "active: 20.6 µM"}
{"compound": "O=C1C(Cc2ccccc2)Nc2ncnc(N3CCc4ccccc4C3)c2N1Cc1ccc(Cl)cc1", "note": "(stereo not drawn)", "Potency": "inconclusive [inhibitor, single point]"}
{"compound": "N#CC(C#N)=Cc1cc2ccccc2nc1N1CCOCC1", "Potency": "active: 10.3 µM"}
{"compound": "Fc1ccccc1CNCc1ccc2c(c1)OCO2", "Potency": "inactive"}
{"compound": "O=C(Nc1ccc(Br)cc1)c1cccc(OC(=S)N2CCOCC2)c1", "Potency": "inconclusive [inhibitor, single point]"}
{"compound": "CN(c1ccccc1)c1ncnc2c1cnn2C", "Potency": "inconclusive [inhibitor, single point]"}
{"compound": "Cc1[nH]n(C(N)=S)c(=O)c1N=Nc1ccc(S(=O)(=O)N2CCCCCC2)cc1", "Potency": "active: 20.6 µM"}
{"compound": "CCC(=O)Nc1ccccc1-c1nc2ccccc2n(C(C)C(=O)Nc2ccc(OC)cc2)c1=O", "note": "(stereo not drawn)", "Potency": "active: 14.6 µM"}
{"compound": "Cc1ccccc1-c1cccc([C@@H]2C[C@H]3[C@H](CON3C)CN2C(=O)CCc2ccccc2)c1", "Potency": "inactive"}
{"compound": "CCc1nc2ccccc2c(=O)n1NC(=O)c1c(O)c2ccccc2n(CC)c1=O", "Potency": "inconclusive [inhibitor, single point]"}
{"compound": "CCCCn1c(N)c(N(CCOC)C(=O)COC(=O)COc2ccccc2C#N)c(=O)[nH]c1=O", "Potency": "inactive"}
{"compound": "COc1ccc(S(=O)(=O)NCCC(=O)Nc2ccc(C)cc2)cc1", "Potency": "inconclusive [inhibitor, single point]"}
{"compound": "COc1ccc(NS(=O)(=O)c2ccc(N3CCOCC3)c(NC(=O)c3ccccc3Cl)c2)cc1", "Potency": "inconclusive [inhibitor, single point]"}
{"compound": "CCc1ccc(C2C(C(=O)Nc3ccc(Cl)cc3)=C(C)Nc3ncnn32)cc1", "note": "(stereo not drawn)", "Potency": "inactive"}
{"compound": "COc1cccc(-c2nc3c(c(C)nn3-c3ccccc3)c3cc(OC)c(OC)cc23)c1", "Potency": "inactive"}
{"compound": "CN(C)S(=O)(=O)c1cccc(NC(=O)COC(=O)c2cccc(S(=O)(=O)N3CCc4ccccc4C3)c2)c1", "Potency": "inconclusive [inhibitor, single point]"}
{"compound": "O=C(NCC1OCCc2ccccc21)c1ccc(NC(=O)c2cccc(Br)c2)cc1", "note": "(stereo not drawn)", "Potency": "active: 7.31 µM"}
{"compound": "COc1cccc(C2C(=O)N(C3CCCCC3)CC(=O)N2Cc2ccc(Cl)cc2)c1", "note": "(stereo not drawn)", "Potency": "inconclusive [inhibitor, single point]"}
{"compound": "COc1cc2c3c(c1)c(C1=NC(=S)NC1=O)c(O)n3C(C)(C)C=C2C", "Potency": "inactive"}
{"compound": "O=C(COc1ccccc1C(=O)N/N=C\\c1ccc(O)c(O)c1)N/N=C/c1ccc(O)c(O)c1", "Potency": "inconclusive [inhibitor, single point]"}
{"compound": "Cc1ccc(O)c(C(=O)c2cnn(C(=O)Cc3csc(C)n3)c2)c1", "Potency": "inconclusive [inhibitor, partial curve]"}
{"compound": "CNC(=O)C1(C)CCN1C(=O)c1ccccc1CCc1ccccc1", "note": "(stereo not drawn)", "Potency": "inactive"}
{"compound": "c1ccc2oc(C3=NNC(=NC4CC4)SC3)cc2c1", "Potency": "inconclusive [inhibitor, single point]"}
{"compound": "Cc1ccc(Cn2c(C3CCCN3c3nc(-c4cc(Cl)c(N)c(Cl)c4)cs3)nc3cc(Cl)c(Cl)cc32)cc1", "note": "(stereo not drawn)", "Potency": "inconclusive [inhibitor, partial curve]"}
{"compound": "COc1ccc(CCC(=O)OCC(=O)c2c(N)n(CC(C)C)c(=O)n(C)c2=O)cc1", "Potency": "inconclusive [inhibitor, single point]"}
{"compound": "O=C(CSc1nnnn1-c1cccnc1)Nc1ccc(OCc2ccccc2)cc1", "Potency": "inconclusive [inhibitor, single point]"}
{"compound": "Cc1ccc2[nH]c(=O)c(CN(CCCN3CCOCC3)C(=O)NC3CCCCC3)cc2c1", "Potency": "inactive"}
{"compound": "COc1cc(OC)c(/C=N/n2c(C)nnc2C)c(OC)c1", "activity change, negative = growth inhibition": "inconclusive: -30.6% [inhibitor]"}
{"compound": "CCOC(=O)C1(C)CCN1C(=O)c1ccc(SC(F)(F)F)cc1", "note": "(stereo not drawn)", "Potency": "inconclusive [inhibitor, single point]"}
{"compound": "CCOc1ccc(CCNC(=O)c2cc(-c3ccccc3)c(N3CCOCC3)s2)cc1", "Potency": "active: 29.1 µM"}
{"compound": "COCCNC(=O)C(=O)Nc1ccc(Br)cc1", "Potency": "inconclusive [inhibitor, partial curve]"}
{"compound": "CCOC(=O)c1cnc2ccc(Cl)cc2c1NCCN(C)C", "Potency": "inconclusive [inhibitor, single point]"}
{"compound": "O=C(/C=C/c1c(F)cccc1Cl)NCc1ccco1", "Potency": "inactive"}
{"compound": "C=CCn1c(C)cc(C(=O)CSc2nc3ccccc3[nH]2)c1C", "Potency": "active: 9.2 µM"}
{"compound": "CCCCCCCCc1c(O)nc(-n2[nH]c(C)c(CCO)c2=O)[nH]c1=O", "Potency": "inactive"}
{"compound": "O=C(NCCN1CCNCC1)c1ccccc1O", "Potency": "inconclusive [inhibitor, single point]"}
{"compound": "Cc1ccccc1OCCCCn1cnc2ccccc21", "Potency": "active: 13 µM"}
{"compound": "CCC(NC(=O)c1cc(COc2ccc(C)nc2)on1)c1ccc(C)cc1", "note": "(stereo not drawn)", "Potency": "inconclusive [inhibitor, single point]"}
{"compound": "Cc1csc2ncc(C(=O)Nc3ccc(C(F)(F)F)cc3)c(=O)n12", "Potency": "inconclusive [inhibitor, single point]"}
{"compound": "COC(=O)c1c(NC(=O)c2c(-c3ccccc3Cl)noc2C)sc2c1CCC2", "Potency": "active: 17.8 µM"}
{"compound": "Cn1cc(CNC(=O)c2ccc3nc(Cc4ccccc4F)oc3c2)cn1", "Potency": "inconclusive [inhibitor, partial curve]"}
{"compound": "Cc1ccc2cc3cc(C(=O)NCCCN4CCCCCC4)oc3nc2c1", "Potency": "inconclusive [inhibitor, single point]"}
{"compound": "O=C1CSC(c2ccccc2Cl)N1", "note": "(stereo not drawn)", "Potency": "inactive"}
{"compound": "Cc1ccc(C2c3[nH]c4ccccc4c3CCN2C(=O)Nc2ccc(C)c(C)c2)cc1", "note": "(stereo not drawn)", "Potency": "inconclusive [inhibitor, single point]"}
{"compound": "CC1CCN(CCCNC(=O)c2cc3c(s2)-c2ccccc2OC3)CC1", "Potency": "inconclusive [inhibitor, single point]"}
{"compound": "Cn1c(SCC(=O)c2ccc3c(c2)OCCO3)nnc1C1CC1", "Potency": "inactive"}
{"compound": "Cc1cccc(NC(=O)c2ccc3c(=O)n(CC4CCCO4)c(=S)[nH]c3c2)c1", "note": "(stereo not drawn)", "Potency": "inconclusive [inhibitor, single point]"}
{"compound": "Cc1ccc(NC(=O)c2cccc(S(=O)(=O)N3CCCCC3)c2)cc1", "Potency": "inconclusive [inhibitor, partial curve]"}
{"compound": "CCN1C(=O)C(O)(CC(=O)C(C)(C)C)c2cc(Br)ccc21", "note": "(stereo not drawn)", "activity change, negative = growth inhibition": "inconclusive: -32.8% [inhibitor]"}
{"compound": "Cc1n[nH]c(C)c1NC(=O)CN1CCN(S(=O)(=O)c2ccc(C(F)(F)F)cc2)CC1", "Potency": "inactive"}
{"compound": "CC(C)N(Cc1nc(-c2ccccc2)no1)C(=O)COc1ccccc1", "Potency": "inconclusive [inhibitor, partial curve, poor fit]"}
{"compound": "Cc1ccc(/C=N/Nc2cccc3cccnc23)c(O)c1", "activity change, negative = growth inhibition": "inconclusive: -31% [inhibitor]"}
{"compound": "NC(=O)c1c(NC(=O)c2ccc([N+](=O)[O-])o2)sc2c1CCCC2", "Potency": "inconclusive [inhibitor, partial curve]"}
{"compound": "O=C(CSc1nc(O)cc(=O)n1-c1ccccc1)Nc1nc2ccccc2s1", "Potency": "inactive"}
{"compound": "CN(C1=C(N2CCCCC2)C(=O)c2ccccc2C1=O)c1ccccc1", "Potency": "active: 20.6 µM"}
{"compound": "O=C(CN1C(=O)c2ccc([N+](=O)[O-])cc2C1=O)Nc1nccs1", "Potency": "inactive"}
{"compound": "O=C(Nc1ccncc1)c1ccc(Cl)c(S(=O)(=O)N2CCCCC2)c1", "Potency": "active: 16.4 µM"}
